# Measured values as given in PMC12820563, “FoxP3 forms a head-to-head dimer in vivo and stabilizes its multimerization on adjacent microsatellites”.
# This is one part of the list.
# Biological target: T1, MBP-FoxP1dN (Mus musculus, UniProt P58462 326-579)
# T1 sequence: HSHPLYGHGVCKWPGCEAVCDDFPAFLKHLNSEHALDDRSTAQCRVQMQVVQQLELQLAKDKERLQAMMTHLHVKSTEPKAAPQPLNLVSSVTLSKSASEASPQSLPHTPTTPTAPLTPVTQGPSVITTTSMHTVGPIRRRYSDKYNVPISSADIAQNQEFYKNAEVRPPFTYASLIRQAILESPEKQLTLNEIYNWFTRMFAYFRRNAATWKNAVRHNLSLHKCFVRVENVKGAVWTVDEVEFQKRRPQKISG
# Test: PD-seq (MBP pull-down with sequencing); 20 mM Tris-HCl pH 7.5, 100 mM NaCl, 1.5 mM MgCl2, 0.4 uM protein, 0.1 uM dsDNA library, 30 min, room temperature, amylose pull-down; high values mean tight binding
# Settings: protein: recombinant; tags: His6-MBP; chain copies: 2; dsDNA, one strand shown
# Procedure, shortened: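 Binding is reads-per-million enrichment of pull-down over input, with replicates pooled. It comes from 30 min room-temperature incubation in Tris pH 7.5 buffer with NaCl and MgCl2 of 0.4 µM His6-MBP-tagged, N-terminally truncated mouse FoxP3 or FoxP1 fragment from E. coli with 0.1 µM Klenow-filled degenerate double-stranded DNA library, followed by amylose resin capture, three washes and Illumina sequencing of the released DNA.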
row,Sequence,binding signal
1,GATGATTGTTCTCCCAGCTGATGAATTTCGACCTTCGAGTAAACAAATTTTCCTAATCTTTCTGTTCAAGCGCCATCTAC,0.788 RPM ratio (pull-down/input)
2,GATGATTGTTCTCCCAGCTGATGAATTACGTCTATCGAGTAAACAAATTTTCCTAATCTTTCTGTTCAAGCGCCATCTAC,1.06 RPM ratio (pull-down/input)
3,GATGATTGTTCTCCCAGCTGATGAATTCAGATACTCGAGTAAACAAATTTTCCTAATCTTTCTGTTCAAGCGCCATCTAC,0.888 RPM ratio (pull-down/input)
4,GATGATTGTTCTCCCAGCTGATGAATTTGAGACATCGAGTAAACAAATTTTCCTAATCTTTCTGTTCAAGCGCCATCTAC,0.988 RPM ratio (pull-down/input)
5,GATGATTGTTCTCCCAGCTGATGAATTATACTACTCGAGTAAACAAATTTTCCTAATCTTTCTGTTCAAGCGCCATCTAC,0.979 RPM ratio (pull-down/input)
6,GATGATTGTTCTCCCAGCTGATGAATTTTTCATCTCGAGTAAACAAATTTTCCTAATCTTTCTGTTCAAGCGCCATCTAC,0.937 RPM ratio (pull-down/input)
7,GATGATTGTTCTCCCAGCTGATGAATTGGCGCATTCGAGTAAACAAATTTTCCTAATCTTTCTGTTCAAGCGCCATCTAC,1.27 RPM ratio (pull-down/input)
8,GATGATTGTTCTCCCAGCTGATGAATTTTGCGCGTCGAGTAAACAAATTTTCCTAATCTTTCTGTTCAAGCGCCATCTAC,1.04 RPM ratio (pull-down/input)
9,GATGATTGTTCTCCCAGCTGATGAATTGATGTACTCGAGTAAACAAATTTTCCTAATCTTTCTGTTCAAGCGCCATCTAC,1.14 RPM ratio (pull-down/input)
10,GATGATTGTTCTCCCAGCTGATGAATTTCCCTTATCGAGTAAACAAATTTTCCTAATCTTTCTGTTCAAGCGCCATCTAC,0.876 RPM ratio (pull-down/input)
11,GATGATTGTTCTCCCAGCTGATGAATTAAACAATTCGAGTAAACAAATTTTCCTAATCTTTCTGTTCAAGCGCCATCTAC,1.64 RPM ratio (pull-down/input)
12,GATGATTGTTCTCCCAGCTGATGAATTATGCTCCTCGAGTAAACAAATTTTCCTAATCTTTCTGTTCAAGCGCCATCTAC,1 RPM ratio (pull-down/input)
13,GATGATTGTTCTCCCAGCTGATGAATTACGTAGTTCGAGTAAACAAATTTTCCTAATCTTTCTGTTCAAGCGCCATCTAC,1.02 RPM ratio (pull-down/input)
14,GATGATTGTTCTCCCAGCTGATGAATTAACCTCGTCGAGTAAACAAATTTTCCTAATCTTTCTGTTCAAGCGCCATCTAC,0.928 RPM ratio (pull-down/input)
15,GATGATTGTTCTCCCAGCTGATGAATTTAAGACCTCGAGTAAACAAATTTTCCTAATCTTTCTGTTCAAGCGCCATCTAC,0.791 RPM ratio (pull-down/input)
16,GATGATTGTTCTCCCAGCTGATGAATTCAACACCTCGAGTAAACAAATTTTCCTAATCTTTCTGTTCAAGCGCCATCTAC,0.962 RPM ratio (pull-down/input)
17,GATGATTGTTCTCCCAGCTGATGAATTCCCCTAGTCGAGTAAACAAATTTTCCTAATCTTTCTGTTCAAGCGCCATCTAC,0.812 RPM ratio (pull-down/input)
18,GATGATTGTTCTCCCAGCTGATGAATTTGGTATTTCGAGTAAACAAATTTTCCTAATCTTTCTGTTCAAGCGCCATCTAC,1.07 RPM ratio (pull-down/input)
19,GATGATTGTTCTCCCAGCTGATGAATTATAGCACTCGAGTAAACAAATTTTCCTAATCTTTCTGTTCAAGCGCCATCTAC,0.987 RPM ratio (pull-down/input)
20,GATGATTGTTCTCCCAGCTGATGAATTGCTGACATCGAGTAAACAAATTTTCCTAATCTTTCTGTTCAAGCGCCATCTAC,1.25 RPM ratio (pull-down/input)

row,Sequence,binding signal
1,GATGATTGTTCTCCCAGCTGATGAATTCAGCTGTTCGAGTAAACAAATTTTCCTAATCTTTCTGTTCAAGCGCCATCTAC,0.925 RPM ratio (pull-down/input)
2,GATGATTGTTCTCCCAGCTGATGAATTCTCACGTTCGAGTAAACAAATTTTCCTAATCTTTCTGTTCAAGCGCCATCTAC,0.76 RPM ratio (pull-down/input)
3,GATGATTGTTCTCCCAGCTGATGAATTCCATACATCGAGTAAACAAATTTTCCTAATCTTTCTGTTCAAGCGCCATCTAC,1.05 RPM ratio (pull-down/input)
4,GATGATTGTTCTCCCAGCTGATGAATTTCGCACTTCGAGTAAACAAATTTTCCTAATCTTTCTGTTCAAGCGCCATCTAC,0.894 RPM ratio (pull-down/input)
5,GATGATTGTTCTCCCAGCTGATGAATTCAACGGGTCGAGTAAACAAATTTTCCTAATCTTTCTGTTCAAGCGCCATCTAC,0.894 RPM ratio (pull-down/input)
6,GATGATTGTTCTCCCAGCTGATGAATTGTTAATATCGAGTAAACAAATTTTCCTAATCTTTCTGTTCAAGCGCCATCTAC,1.46 RPM ratio (pull-down/input)
7,GATGATTGTTCTCCCAGCTGATGAATTCTGCCTATCGAGTAAACAAATTTTCCTAATCTTTCTGTTCAAGCGCCATCTAC,0.847 RPM ratio (pull-down/input)
8,GATGATTGTTCTCCCAGCTGATGAATTTGCAGTTTCGAGTAAACAAATTTTCCTAATCTTTCTGTTCAAGCGCCATCTAC,1.02 RPM ratio (pull-down/input)
9,GATGATTGTTCTCCCAGCTGATGAATTTACGGGATCGAGTAAACAAATTTTCCTAATCTTTCTGTTCAAGCGCCATCTAC,1.04 RPM ratio (pull-down/input)
10,GATGATTGTTCTCCCAGCTGATGAATTCCGACTTTCGAGTAAACAAATTTTCCTAATCTTTCTGTTCAAGCGCCATCTAC,0.821 RPM ratio (pull-down/input)
11,GATGATTGTTCTCCCAGCTGATGAATTCTTAGAGTCGAGTAAACAAATTTTCCTAATCTTTCTGTTCAAGCGCCATCTAC,0.77 RPM ratio (pull-down/input)
12,GATGATTGTTCTCCCAGCTGATGAATTGTCGAATTCGAGTAAACAAATTTTCCTAATCTTTCTGTTCAAGCGCCATCTAC,1.03 RPM ratio (pull-down/input)
13,GATGATTGTTCTCCCAGCTGATGAATTGCATGATTCGAGTAAACAAATTTTCCTAATCTTTCTGTTCAAGCGCCATCTAC,1.21 RPM ratio (pull-down/input)
14,GATGATTGTTCTCCCAGCTGATGAATTAAATGAGTCGAGTAAACAAATTTTCCTAATCTTTCTGTTCAAGCGCCATCTAC,1.01 RPM ratio (pull-down/input)
15,GATGATTGTTCTCCCAGCTGATGAATTCGAACTGTCGAGTAAACAAATTTTCCTAATCTTTCTGTTCAAGCGCCATCTAC,0.846 RPM ratio (pull-down/input)
16,GATGATTGTTCTCCCAGCTGATGAATTCAACGGTTCGAGTAAACAAATTTTCCTAATCTTTCTGTTCAAGCGCCATCTAC,0.859 RPM ratio (pull-down/input)
17,GATGATTGTTCTCCCAGCTGATGAATTAGTCTTCTCGAGTAAACAAATTTTCCTAATCTTTCTGTTCAAGCGCCATCTAC,0.879 RPM ratio (pull-down/input)
18,GATGATTGTTCTCCCAGCTGATGAATTTGCAGTGTCGAGTAAACAAATTTTCCTAATCTTTCTGTTCAAGCGCCATCTAC,0.987 RPM ratio (pull-down/input)
19,GATGATTGTTCTCCCAGCTGATGAATTATACGAATCGAGTAAACAAATTTTCCTAATCTTTCTGTTCAAGCGCCATCTAC,1.06 RPM ratio (pull-down/input)
20,GATGATTGTTCTCCCAGCTGATGAATTTCGATCTTCGAGTAAACAAATTTTCCTAATCTTTCTGTTCAAGCGCCATCTAC,0.828 RPM ratio (pull-down/input)
